# The full ranking holds about 33,000 sequences; the median of “E-score (-0.5 to 0.5)” is about -0.056, and the highest 2% start at about 0.38. Some of the results follow.
# Molecular target: Stb4 (UniProt P50104)
# Test: PBM E-score (8-mer binding enrichment) (E-score (-0.5 to 0.5)); higher = stronger / more preferred TF binding; most listed sequences are background and not binding sites
# Settings: protein concentration: 200 nM; construct: GST-DNA-binding domain
# Protocol: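 Universal 'all 10-mer' protein binding microarrays (Agilent AMADID 015681) probed with GST-tagged S. cerevisiae TFs (full-length or DBD) made by in vitro transcription/translation (PURExpress), about 100-200 nM. Bound TF was detected with fluorescent anti-GST. Each ungapped 8-mer (which stands for itself and its reverse complement) is scored by the PBM enrichment score (E-score), a modified Wilcoxon-Mann-Whitney statistic from -0.5 to +0.5, computed with the Universal PBM Analysis Suite. Scale: above 0.35 generally sequence-specific binding.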
row,Sequence,PBM E-score
1,CGATACCC,0.0781
2,AATAACGA,-0.0674
3,AGTGTTCG,0.0766
4,AATTGAAT,-0.058
5,CCACCACC,-0.04
6,ATCCGCGG,0.33
7,GTGACCCA,-0.146
8,CTACCACC,-0.137
9,CGTGCACG,0.0126
10,GATGTTTA,0.0736
11,ATAATAGA,-0.117
12,CGACCACC,-0.00731
13,CTCCGTTC,0.221
14,AATCTAGC,-0.202
15,TAGCATCA,-0.0485
16,TCCCAAAA,-0.00583
17,GCATCAGC,0.00943
18,CACAGACC,0.141
19,CAAGCAGG,-0.0856
20,AATCTGAA,-0.0773
21,ACGGCCAA,0.11
22,CGTCTCGC,-0.226
23,AGCAACTC,-0.0301
24,TCATAACA,-0.0654
25,CCTTACGA,-0.134

row,Sequence,PBM E-score
1,ATCTCTAA,0.0304
2,TAAAATTA,0.0275
3,AGAACCCG,0.244
4,ATTTATCC,0.28
5,CACATAGA,-0.112
6,CACTCTCA,-0.322
7,GAAATTAA,0.108
8,ACAGATCA,-0.0491
9,GGCGTGGA,-0.109
10,ACCTCTTA,0.115
11,AAAGGCTC,-0.0215
12,TCTCACAA,0.00236
13,CTGATTCA,-0.0464
14,GACTATCA,-0.18
15,ATCAAAAC,0.0232
16,CGTCGATA,-0.0539
17,CAGTTGGA,-0.223
18,ATCAGACC,-0.0587
19,GATGTAGC,-0.0132
20,GGAAGTCC,0.23
21,AATGAGCT,-0.089
22,ATCGCAAC,-0.224
23,AATATGCA,0.00873
24,ACTGGTCG,-0.106
25,GACAGCAA,-0.149

row,Sequence,PBM E-score
1,CGGTAAAG,0.301
2,ACTCAAGC,-0.0831
3,GATCGCAC,-0.218
4,CTGGACCC,-0.159
5,ACGATCTA,-0.299
6,CCCTGATA,-0.297
7,GAAGAGTC,-0.0545
8,ACGGATGG,0.324
9,CATTGCCC,0.00597
10,ATGTTAAA,-0.0583
11,AGTAATCC,-0.0235
12,AGGGCGAG,-0.18
13,ACGAGGGC,-0.0578
14,GCCTCATA,0.0577
15,AGTGAACG,-0.164
16,CCATAGTA,-0.0334
17,CTGCTACC,-0.16
18,CAATTACC,0.0582
19,ATTCTCGA,-0.194
20,GCTTAGTA,-0.213
21,ATCGTGAC,-0.0813
22,AGCGATTC,-0.0623
23,ATTTTATC,0.106
24,AGAGGCCC,-0.13
25,GCCAACCC,0.045

row,Sequence,PBM E-score
1,GAGGTTAA,-0.0636
2,ACGCTACC,0.00891
3,AAATACGA,-0.0719
4,ACTCCTTG,-0.0792
5,GCCATCGA,-0.0613
6,CAGGAGGC,-0.125
7,CGGCAAAA,0.297
8,CACGAGGC,-0.131
9,GGGGTCCA,-0.189
10,CAAGGTAG,-0.106
11,ACGAGGCA,-0.238
12,CGGTCGTA,0.128
13,GCAAAAGC,-0.0143
14,CTTCGGTC,0.234
15,ATCTAAAT,0.0781
16,CTTTCGCA,-0.136
17,AACTAAAC,-0.0477
18,CGCCGGAG,0.168
19,CGTGTGAG,-0.119
20,CATCGACC,-0.0244
21,AAAACTCA,-0.0483
22,ACGGCACT,0.0755
23,GAATGATA,0.0409
24,AAGCAATT,-0.0575
25,AGATGTGA,0.134

row,Sequence,PBM E-score
1,TATGAAGA,-0.0238
2,GCATTTTA,0.0291
3,CTTACGCC,-0.0253
4,TACATCGA,-0.13
5,ATCGGGTA,0.419
6,AGGAATCC,-0.042
7,CCAGTTCG,0.0945
8,CAGGCCCA,-0.244
9,ATCGAAAC,0.116
10,GTACCAAC,0.0329
11,CCTGCGCA,-0.235
12,GCCTAAAA,-0.262
13,ACGCTGAC,-0.172
14,CCGTCCTA,-0.0174
15,ACAGCTAT,-0.282
16,ACGCGTTG,-0.171
17,GCTGTTAA,0.0582
18,CAGTGACG,0.0436
19,AAGATTGG,-0.0776
20,GGCACGAC,-0.0989
21,AAATTCTG,-0.0973
22,ACCTAGTG,-0.29
23,CAACTTCC,0.238
24,AGAGACTA,0.0641
25,CACAGCTC,-0.18

row,Sequence,PBM E-score
1,AAATGCAG,-0.233
2,GCGCCATA,-0.0762
3,AGTTTGCA,-0.0788
4,TCTTGCCA,-0.235
5,TCAGGGAA,-0.15
6,CACAGATC,-0.0337
7,AATGGGTC,-0.125
8,CGTCGTAA,-0.0721
9,CCGATCCC,0.34
10,CATTCACA,-0.252
11,ACTTGCTC,-0.13
12,CTCTTCTC,-0.0938
13,CCCAGGCG,-0.0367
14,ACCATAAT,-0.0952
15,CATGTTTA,-0.12
16,AAAGACAA,-0.0914
17,ACCTGTTC,0.0787
18,CACAGTGA,-0.235
19,AACGGTTC,-0.0248
20,CATGTGGG,-0.186
21,GTCAGTTA,-0.0826
22,AGCACAAT,-0.25
23,ACACCATC,-0.197
24,GTAATAAA,0.034
25,CCGGCAAA,0.341

row,Sequence,PBM E-score
1,ATCTACTG,-0.143
2,GCACGTTA,-0.206
3,ACCGACGT,0.203
4,AGTGAACA,-0.166
5,TGGTCGAA,-0.346
6,TAGAAATA,-0.0635
7,GATTTGTA,-0.0917
8,CGCTTTAG,-0.111
9,GTTGTTGA,-0.191
10,AGAATGCC,-0.0558
11,GGAACTGA,0.208
12,ACGGATAG,0.381
13,ATGTAAGG,-0.022
14,CGCTTCTC,0.107
15,GACTAATA,-0.112
16,CCAGAGCC,-0.174
17,CAGCGTCG,-0.0719
18,ACGGCCGA,0.227
19,GATCTATA,0.0128
20,CTGGCCAC,-0.17
21,ACCTGTCC,-0.0253
22,AGTTAGCC,0.046

# Reference: the supplement of paper PMC3334620
